# According to the supplement of paper PMC8728848:
# Some of the results follow.
# Experiments:
# Assay in all cases: glycan array binding signal (z-score within array); higher = stronger binding
# Settings in all cases: glycan notation: IUPAC condensed, linker removed
# [1] = target: GalNAc(b1-4)GlcNAc
# Procedure, shortened: (§1)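 Glycan array data came from 3228 arrays in the Consortium for Functional Glycomics database, and only arrays with an available protein sequence were kept. Glycan names were put into IUPAC-condensed notation, and columns mapping to the same glycan were averaged. The binding signal is a within-array Z-score, averaged across arrays of one protein sequence run at different concentrations or buffers and across linkers. A negative Z-score can be read as non-binding.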
# [2] = target: GalNAc(b1-4)GlcNAc(b1-2)Man
# Procedure, shortened: as §1
# [3] = target: GalNAc(b1-4)GlcNAc(b1-2)Man(a1-3)[GalNAc(b1-4)GlcNAc(b1-2)Man(a1-6)]Man(b1-4)GlcNAc(b1-4)GlcNAc
# Procedure, shortened: as §1
# [4] = target: GalNAc(b1-4)GlcNAc(b1-3)GalNAc(b1-4)GlcNAc
# Procedure, shortened: as §1
# [5] = target: GalNAc(b1-4)GlcNAc6S
# Procedure, shortened: as §1
# [6] = target: GalNAc(b1-6)GalNAc
# Procedure, shortened: as §1
# [7] = target: GalNAc3S(b1-4)GlcNAc
# Procedure, shortened: as §1
# [8] = target: GalNAc3S(b1-4)GlcNAc3S
# Procedure, shortened: as §1
# [9] = target: GalNAc3S(b1-4)[Fuc(a1-3)]GlcNAc
# Procedure, shortened: as §1
# [10] = target: GalNAc4S6S(b1-4)GlcNAc
# Procedure, shortened: as §1
# [11] = target: GalNAc6S(b1-4)GlcNAc
# Procedure, shortened: as §1
# [12] = target: Glc(a1-4)Glc
# Procedure, shortened: as §1
# [13] = target: Glc(a1-4)Glc(a1-4)Glc(a1-4)Glc
# Procedure, shortened: as §1
# [14] = target: Glc(a1-6)Glc(a1-6)Glc
# Procedure, shortened: as §1
# [15] = target: Glc(a1-6)Glc(a1-6)Glc(a1-6)Glc
# Procedure, shortened: as §1
# [16] = target: Glc(b1-4)Glc
# Procedure, shortened: as §1
# [17] = target: Glc(b1-6)Glc
# Procedure, shortened: as §1
# [18] = target: GlcA(b1-3)Gal
# Procedure, shortened: as §1
# [19] = target: GlcA(b1-3)GlcNAc
# Procedure, shortened: as §1
# [20] = target: GlcA(b1-6)Gal
# Procedure, shortened: as §1
# [21] = target: GlcA3S(b1-3)Gal(b1-4)GlcNAc(b1-2)Man
# Procedure, shortened: as §1
# [22] = target: GlcA3S(b1-3)Gal(b1-4)GlcNAc(b1-3)Gal(b1-4)Glc
# Procedure, shortened: as §1
# [23] = target: GlcNAc(a1-3)Gal(b1-4)GlcNAc
# Procedure, shortened: as §1
# [24] = target: GlcNAc(a1-4)Gal(b1-3)GlcNAc
# Procedure, shortened: as §1
# [25] = target: GlcNAc(a1-4)Gal(b1-4)GalNAc
# Procedure, shortened: as §1
# [26] = target: GlcNAc(a1-4)Gal(b1-4)GlcNAc
# Procedure, shortened: as §1
# [27] = target: GlcNAc(a1-4)Gal(b1-4)GlcNAc(b1-3)Gal(b1-4)Glc
# Procedure, shortened: as §1
# [28] = target: GlcNAc(a1-4)Gal(b1-4)GlcNAc(b1-3)Gal(b1-4)GlcNAc
# Procedure, shortened: as §1
# [29] = target: GlcNAc(a1-4)Gal(b1-4)GlcNAc(b1-3)Gal(b1-4)GlcNAc(b1-3)Gal(b1-4)GlcNAc
# Procedure, shortened: as §1
# [30] = target: GlcNAc(a1-4)Gal(b1-4)GlcNAc(b1-3)Gal(b1-4)[Fuc(a1-3)]GlcNAc(b1-3)Gal(b1-4)[Fuc(a1-3)]GlcNAc
# Procedure, shortened: as §1
# [31] = target: GlcNAc(a1-6)Gal(b1-4)GlcNAc
# Procedure, shortened: as §1
# [32] = target: GlcNAc(b1-2)Gal(b1-3)GalNAc
# Procedure, shortened: as §1
# [33] = target: GlcNAc(b1-2)Man(a1-3)[GlcNAc(b1-2)Man(a1-6)]Man(b1-4)GlcNAc(b1-4)GlcNAc
# Procedure, shortened: as §1
# [34] = target: GlcNAc(b1-2)Man(a1-3)[GlcNAc(b1-2)Man(a1-6)]Man(b1-4)GlcNAc(b1-4)[Fuc(a1-6)]GlcNAc
# Procedure, shortened: as §1
# [35] = target: GlcNAc(b1-2)Man(a1-3)[GlcNAc(b1-4)][GlcNAc(b1-2)Man(a1-6)]Man(b1-4)GlcNAc(b1-4)GlcNAc
# Procedure, shortened: as §1
# [36] = target: GlcNAc(b1-2)Man(a1-3)[GlcNAc(b1-4)][GlcNAc(b1-2)Man(a1-6)]Man(b1-4)GlcNAc(b1-4)[Fuc(a1-6)]GlcNAc
# Procedure, shortened: as §1
# [37] = target: GlcNAc(b1-2)[GlcNAc(b1-4)]Man(a1-3)[GlcNAc(b1-2)Man(a1-6)]Man(b1-4)GlcNAc(b1-4)GlcNAc
# Procedure, shortened: as §1
# [38] = target: GlcNAc(b1-2)[GlcNAc(b1-4)]Man(a1-3)[GlcNAc(b1-4)][GlcNAc(b1-2)Man(a1-6)]Man(b1-4)GlcNAc(b1-4)GlcNAc
# Procedure, shortened: as §1
# [39] = target: GlcNAc(b1-2)[GlcNAc(b1-4)]Man(a1-3)[GlcNAc(b1-4)][GlcNAc(b1-2)[GlcNAc(b1-6)]Man(a1-6)]Man(b1-4)GlcNAc(b1-4)GlcNAc
# Procedure, shortened: as §1
# [40] = target: GlcNAc(b1-2)[GlcNAc(b1-4)]Man(a1-3)[GlcNAc(b1-4)][GlcNAc(b1-2)[GlcNAc(b1-6)]Man(a1-6)]Man(b1-4)GlcNAc(b1-4)[Fuc(a1-6)]GlcNAc
# Procedure, shortened: as §1
# [41] = target: GlcNAc(b1-2)[GlcNAc(b1-6)]Man(a1-6)[GlcNAc(b1-2)Man(a1-3)]Man(b1-4)GlcNAc(b1-4)GlcNAc
# Procedure, shortened: as §1
# [42] = target: GlcNAc(b1-2)[GlcNAc(b1-6)]Man(a1-6)[GlcNAc(b1-2)Man(a1-3)]Man(b1-4)GlcNAc(b1-4)[Fuc(a1-6)]GlcNAc
# Procedure, shortened: as §1
# [43] = target: GlcNAc(b1-2)[GlcNAc(b1-6)]Man(a1-6)[GlcNAc(b1-4)][GlcNAc(b1-2)Man(a1-3)]Man(b1-4)GlcNAc(b1-4)GlcNAc
# Procedure, shortened: as §1
# [44] = target: GlcNAc(b1-3)Fuc
# Procedure, shortened: as §1
# [45] = target: GlcNAc(b1-3)Gal
# Procedure, shortened: as §1
binder,measurement,setting,value
Mg1lysM (Mycosphaerella graminicola) (protein) QRNPITITPQFDCGATNSQQYVARSGDTLTKIAQEIYHDVVGVCDIARANNLADPNRIDAGTPYTIPINCQTYDRNSCL,glycan array binding signal (z-score),[1],-0.062
same,glycan array binding signal (z-score),[2],-0.062
same,glycan array binding signal (z-score),[3],-0.092
same,glycan array binding signal (z-score),[4],-0.075
same,glycan array binding signal (z-score),[5],-0.084
same,glycan array binding signal (z-score),[6],-0.074
same,glycan array binding signal (z-score),[7],-0.078
same,glycan array binding signal (z-score),[8],-0.057
same,glycan array binding signal (z-score),[9],0.01
same,glycan array binding signal (z-score),[10],-0.069
same,glycan array binding signal (z-score),[11],-0.049
same,glycan array binding signal (z-score),[12],-0.072
same,glycan array binding signal (z-score),[13],-0.073
same,glycan array binding signal (z-score),[14],-0.056
same,glycan array binding signal (z-score),[15],-0.054
same,glycan array binding signal (z-score),[16],-0.067
same,glycan array binding signal (z-score),[17],-0.076
same,glycan array binding signal (z-score),[18],-0.055
same,glycan array binding signal (z-score),[19],-0.09
same,glycan array binding signal (z-score),[20],-0.062
same,glycan array binding signal (z-score),[21],-0.053
same,glycan array binding signal (z-score),[22],-0.083
same,glycan array binding signal (z-score),[23],-0.079
same,glycan array binding signal (z-score),[24],-0.015
same,glycan array binding signal (z-score),[25],-0.079
same,glycan array binding signal (z-score),[26],-0.043
same,glycan array binding signal (z-score),[27],-0.084
same,glycan array binding signal (z-score),[28],-0.079
same,glycan array binding signal (z-score),[29],-0.078
same,glycan array binding signal (z-score),[30],-0.067
same,glycan array binding signal (z-score),[31],-0.098
same,glycan array binding signal (z-score),[32],-0.066
same,glycan array binding signal (z-score),[33],-0.057
same,glycan array binding signal (z-score),[34],-0.043
same,glycan array binding signal (z-score),[35],-0.08
same,glycan array binding signal (z-score),[36],-0.072
same,glycan array binding signal (z-score),[37],-0.068
same,glycan array binding signal (z-score),[38],-0.09
same,glycan array binding signal (z-score),[39],-0.088
same,glycan array binding signal (z-score),[40],-0.071
same,glycan array binding signal (z-score),[41],-0.074
same,glycan array binding signal (z-score),[42],-0.049
same,glycan array binding signal (z-score),[43],-0.052
same,glycan array binding signal (z-score),[44],-0.089
same,glycan array binding signal (z-score),[45],-0.07
